# Measured values: the supplement of paper PMC4604168 (melanoma cell lines)
# Some of the results follow. Many values rest on one well or one pass, so single values are uncertain.
# System: SkMel5
# Assay: cell count relative to DMSO control; melanoma cells; higher = more viable cells
# Settings: library dose: low library concentration; 72 h
# 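Note: cell number obtained by counting DAPI-stained nuclei in high-throughput microscope images with image analysis software, screen run in 1,536-well plates.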
row,Structure (SMILES),cell count [%]
1,"COCC[n+]1c2c(n(Cc3cnccn3)c1C)C(=O)c1ccccc1C2=O + c1cc(-c2cnn3cc(-c4ccc(OCCN5CCCCC5)cc4)cnc23)ccn1 [Dorsomorphin] (first compound 0.0004 µM, partner dose 0.4 µM)",54.3
2,"O=C(CCCCCCC(=O)Nc1ccccc1)NO [vorinostat] + O=C(Nc1ccccc1)c1cc([N+](=O)[O-])ccc1Cl [GW9662] (first compound 0.08 µM, partner dose 2 µM)",91.7
3,"Nc1cccc2c1CN(C1CCC(=O)NC1=O)C2=O (stereo unspecified) [lenalidomide] + O=C(O)C(=O)Nc1sc2c(c1C(=O)O)CCNC2 [TCS401] (first compound 1 µM, partner dose 1.66667 µM)",101
4,"COCC[n+]1c2c(n(Cc3cnccn3)c1C)C(=O)c1ccccc1C2=O + O=c1cc(-c2cccc3c2Sc2ccccc2S3)oc(N2CCOCC2)c1 [KU55933] (first compound 0.0004 µM, partner dose 1 µM)",74.4
5,"Nc1cccc2c1CN(C1CCC(=O)NC1=O)C2=O (stereo unspecified) [lenalidomide] + N#Cc1c(O)c2c(-c3ccc(-c4ccccc4O)cc3)csc2[nH]c1=O [A769662] (first compound 1 µM, partner dose 2 µM)",94.4
6,"COCC[n+]1c2c(n(Cc3cnccn3)c1C)C(=O)c1ccccc1C2=O + CCCCCCCCCCCC1=C(O)C(=O)C=C(O)C1=O [Embelin] (first compound 0.0004 µM, partner dose 1.2 µM)",71
